The whole screen tested about 46,000 compounds, of which about 60 (0.1%) were called active. Inconclusive results (about 3%) are left out. Calls follow the shape of the dose curve; as a rule, active = well fitted inhibition curve with a large enough effect; inconclusive = small, poorly fitted or top-dose-only effect; inactive = no such curve, though single readings can be large or run the other way. This is one part of the list.
Experiment: Primary qHTS assay for Inhibitors of ovarian cancer metastasis using an organotypic tumor microenvironment (TME) model. Also: nearly all actives have a fitted effect of over 65% in size.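 As to activity change, negative = inhibition: plate controls were DMSO wells for no effect and tomatine positive control wells for full effect.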
Conditions: SKOV3ip1-GFP adhesion/invasion on 3D omental model, fluorescence; series mostly up to 45.8 µM; activity change, negative = inhibition: at the top concentration
Procedure, shortened: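 qHTS, 4-pt dose (0.36-46 umol/L); SKOV3ip1-GFP, 1,200 cells/well, no FBS; primary omental fibroblast/mesothelial co-culture 48 h pre-grown; 2 h RT + 16 h 37 C; PBS wash, 4% PFA; GFP count 488/509 nm.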

Activity change, negative = inhibition, inactive:
CCOc1ccc(C(=O)NCCc2csc(-c3ccc(C(F)(F)F)cc3)n2)cc1OCC -27.4%, CCOc1ccccc1CNC(=O)C1CCN(C2=NS(=O)(=O)C(c3ccc(C)c(C)c3)=C2C)CC1 6.4%, COc1ccc(OC)c(NC(=O)Cn2cnc3sc(C)c(S(=O)(=O)N4CCN(c5ccccc5OC)CC4)c3c2=O)c1 0.406%, CCCN(C(=O)c1nn(-c2ccc(OC)c(Cl)c2)c(=O)c2c1c1ccccc1n2C)c1ccccc1F 1.93%, CC(C)c1ccc2oc(-c3cc(NC(=O)c4cccs4)ccc3Cl)nc2c1 16.9%, O=c1c2oc3ccccc3c2n(Cc2cccc(F)c2)c(=O)n1Cc1ccco1 1.04%, COc1cccc(NC(=O)c2sc3nc(C)c(C(=O)Nc4ccc(C)cc4C)c(-c4sccc4C)c3c2N)c1 -7.06%, CS(=O)(=O)CCNCc1ccc(-c2ccc3ncnc(Nc4ccc(OCc5cccc(F)c5)c(Cl)c4)c3c2)o1 -25.3%, COc1ccc(S(=O)(=O)c2c(Nc3ccc(F)cc3)sc(C(=O)c3ccc(C)cc3C)c2N)cc1 1.02%, Cc1ccccc1N1CCN(S(=O)(=O)c2nnc(NC(=O)c3ccccc3)s2)CC1 2.07%, CCOc1ccccc1CNC(=O)c1cc2c(=O)n(Cc3ccccc3)ccc2nc1C 145%, CC(=O)N1CCCc2cc(S(=O)(=O)N3CCCCC3)ccc21 2.91%, CCOc1ccc(NC(=O)CSc2nccn2-c2cccc(C)c2C)cc1 4.3%, COc1ccccc1NC(=O)CCn1cnc2ccccc2c1=O 0.258%, Cc1ccc(Cl)cc1N1CCN(C(=O)C2CCCN(S(=O)(=O)c3ccc(Br)s3)C2)CC1 (stereo not drawn) 7.62%, Cc1ccc(OCC(=O)NCC(=O)OCc2cc(=O)n3nc(C)sc3n2)cc1 -15.9%, CCCCn1c2ccc(F)cc2c2nnc(SCCN3CCCCC3)nc21 -4.24%, CC(C)c1ccc(NC(=O)CSC2=Nc3ccccc3C3=NC(CC(=O)NCc4ccc(F)cc4)C(=O)N23)cc1 (stereo not drawn) 16.1%, COc1ccc(CNC(=O)c2ccc3c(c2)N(Cc2cccc(Cl)c2)C(=O)c2ccccc2S3)c(OC)c1 -5.92%, Cc1ccc(CNC(=O)c2nc(SCc3ccc(C)cc3)ncc2Cl)cc1 -15.2%, COc1ccc(CCNC(=O)CSc2ncc3c(n2)-c2cc(Cl)ccc2N(Cc2ccccc2)S3(=O)=O)cc1OC -0.82%, CC(C)c1ccc(OC(=O)c2cc(-c3ccc4c(c3)OCCO4)on2)cc1 0.615%, Cc1ccc(-n2c(=O)c3cccnc3n2CC(=O)Nc2cccc(C)c2C)cc1 -1.79%, Cc1cccn2c(Nc3ccccc3)c(-c3ccc(N4CCOCC4)cc3)nc12 -10.8%, COCCCNC(=O)CCn1c(=O)c2ccccc2n(CC(=O)Nc2c(C)cc(C)cc2C)c1=O 44.1%, Cc1nn(-c2ccccc2)c(OC(=O)c2ccccc2F)c1S(=O)(=O)c1ccccc1 -7.38%, COc1cccc2sc(N(Cc3cccnc3)C(=O)COc3ccccc3)nc12 -4.26%, N#Cc1ccccc1NC(=O)c1cc2c(=O)n3ccccc3nc2s1 3.79%, CC1CCN(S(=O)(=O)c2ccc3c(c2)N(CC(=O)NCCCN2CCCCC2C)C(=O)CS3)CC1 (stereo not drawn) -2.7%, COc1ccc(CCNC(=O)C2=C(C)C(=O)OC23CCCCC3)c(OC)c1OC -13.2%, CCN(CC)S(=O)(=O)c1ccc2c(c1)nc(CN(C)C(=O)c1cccc(Cl)c1)n2C -6.56%, COc1cc(CN(C(=O)c2ccccc2[N+](=O)[O-])c2ccccn2)cc(OC)c1OC 2.78%, Cc1ccc(C)c(NC(=O)CSc2nc(=O)n(CCN(C)C)c3c2CCC3)c1 -8.66%, Cc1sc2c(c1C)c(=O)n(CCc1ccccc1)c(=O)n2Cc1ccccc1Cl 0.955%, COc1cccc(N2CCN(C(=O)c3cccc(NC(=O)c4nsc5ccccc45)c3)CC2)c1 2.93%, Cc1ccc(S(=O)(=O)c2cn(Cc3ccccc3F)c3cc4c(cc3c2=O)OCO4)cc1 0.317%, Cc1cc(NC(=O)c2ccc3c(c2)N(Cc2cccc(Cl)c2)C(=O)c2ccccc2S3=O)ccc1Br (stereo not drawn) 10.9%, CCc1ccccc1NC(=O)Nc1cc(C(=O)NCc2ccc(C(C)C)cc2)ccc1N1CCCC1 -9.16%, CCC1CN(S(=O)(=O)c2cc(-c3cc(C)no3)ccc2OC)c2cc(C)ccc2O1 (stereo not drawn) -2.74%, CO[C@@H]1[C@@H](O)[C@H](O)[C@@H](n2c3c(Cl)cccc3c3c4c(c5c6cccc(Cl)c6[nH]c5c32)C(=O)NC4=O)O[C@@H]1CO 2%, CCOc1ccc(CNC(=O)CCc2c(C)nn(-c3ccc(N4CCOCC4)nn3)c2C)cc1 110%, Cc1ccc(S(=O)(=O)N2CCC(c3nnc(-c4cccc(C)c4)o3)CC2)cc1 -6.7%, CCc1nc2nc(C)cc(Nc3cc(Cl)ccc3OC)n2n1 9.49%, CCc1ccc(CNC(=O)c2ccc(NC(=O)N3CCSc4ncccc43)cc2)cc1 -9.71%, COc1ccc(C(=O)NCc2nnc(SCC(=O)Nc3ccc(C)cc3)n2-c2ccccc2)cc1 2.4%, Cc1ccc(SCC(=O)Nc2ccc3oc(-c4ccc(F)cc4)nc3c2)cc1 -2.04%, COc1cccc(CNC(=O)c2ccc3c(Cl)c4c(nc3c2)CCCC4)c1 -6.77%

outcome, inactive:
COc1ccc(C(=O)N2CCC(c3nc4ccccc4o3)CC2)cc1, COc1ccc(NC(=O)c2ccc3c(=O)n4nc(Nc5cc(C)ccc5C)sc4nc3c2)cc1, c1ccc(Cc2nnc(SCc3nc(-c4cccs4)no3)n2-c2ccccc2)cc1, COc1ccc(C(=O)Nc2cc(C(C)C)c(O)c(S(=O)(=O)c3ccc(OC)cc3)c2C)cc1, CN(C(=O)c1cc2c(=O)oc3ccccc3c2s1)c1ccc(F)cc1, CCOC(=O)C1CCN(S(=O)(=O)c2cc(-c3onc(C)c3C)ccc2OC)CC1, CCc1ccccc1NC(=O)Cn1c(=O)c2cccn2c2ccc(F)cc21, CCOc1ccc(C(=O)Nc2nnc(SCc3cc(=O)c4cc(C)ccc4[nH]3)s2)cc1, CC1CCCN(Cc2c(O)ccc3c(=O)c(Oc4ccccc4Cl)c(C(F)(F)F)oc23)C1 (stereo not drawn), CCc1ccc(NC(=O)CCS(=O)(=O)c2ccc3c(c2)CCN3C(C)=O)cc1, COc1ccc(OC)c(CNC(=O)C2CCN(S(=O)(=O)c3cn(C)cn3)CC2)c1

Source: PubChem BioAssay AID1963576 (National Center for Advancing Translational Sciences (NCATS), 2024)
